Laboratory results from publication PMC11475522.
No constants are given. Whether binding was seen depends on the method and setting. Binding seen in cells or lysates may run through a third protein. Some entries that bind do so weakly or less than the wild type.

Amino acid sequences for entries named in this document (tags omitted).
UniProt Q00987: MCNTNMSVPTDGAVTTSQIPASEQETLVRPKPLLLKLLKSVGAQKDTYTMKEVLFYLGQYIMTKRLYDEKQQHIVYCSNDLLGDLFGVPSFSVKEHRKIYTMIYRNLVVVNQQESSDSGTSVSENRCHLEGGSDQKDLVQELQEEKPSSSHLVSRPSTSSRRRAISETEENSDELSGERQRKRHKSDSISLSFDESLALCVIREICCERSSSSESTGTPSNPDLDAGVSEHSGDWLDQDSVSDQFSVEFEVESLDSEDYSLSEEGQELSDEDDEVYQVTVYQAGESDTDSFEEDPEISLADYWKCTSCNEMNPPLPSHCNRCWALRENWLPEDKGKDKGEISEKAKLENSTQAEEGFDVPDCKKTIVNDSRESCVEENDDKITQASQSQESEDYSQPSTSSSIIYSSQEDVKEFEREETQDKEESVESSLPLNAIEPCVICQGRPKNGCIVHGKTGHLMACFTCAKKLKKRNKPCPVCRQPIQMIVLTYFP
UniProt Q13619: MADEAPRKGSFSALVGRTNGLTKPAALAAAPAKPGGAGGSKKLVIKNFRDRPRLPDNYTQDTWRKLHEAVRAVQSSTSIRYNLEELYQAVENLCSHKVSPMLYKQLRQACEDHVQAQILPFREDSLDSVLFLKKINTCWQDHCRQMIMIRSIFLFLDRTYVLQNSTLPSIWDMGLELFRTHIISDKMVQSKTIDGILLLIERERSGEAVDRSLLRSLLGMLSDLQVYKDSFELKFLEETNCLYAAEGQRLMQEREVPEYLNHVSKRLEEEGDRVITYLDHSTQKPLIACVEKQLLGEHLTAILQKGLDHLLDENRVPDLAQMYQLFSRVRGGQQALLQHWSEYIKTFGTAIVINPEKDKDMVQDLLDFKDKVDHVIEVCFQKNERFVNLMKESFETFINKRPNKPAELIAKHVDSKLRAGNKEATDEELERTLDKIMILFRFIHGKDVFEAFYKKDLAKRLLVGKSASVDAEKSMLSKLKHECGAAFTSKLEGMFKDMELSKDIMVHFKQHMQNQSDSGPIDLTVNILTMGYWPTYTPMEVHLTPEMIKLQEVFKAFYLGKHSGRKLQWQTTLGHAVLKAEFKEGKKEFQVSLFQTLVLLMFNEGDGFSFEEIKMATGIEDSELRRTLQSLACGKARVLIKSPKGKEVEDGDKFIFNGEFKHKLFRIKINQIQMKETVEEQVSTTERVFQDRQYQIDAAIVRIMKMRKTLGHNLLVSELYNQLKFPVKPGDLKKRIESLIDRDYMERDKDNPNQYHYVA

Target: Mdm2 (human (endogenous in A375)) (UniProt Q00987)
Test: co-IP; 4B2 anti-Mdm2 antibody and protein G sepharose, A375 extracts in NP-40 buffer (1% NP-40, 150 mM NaCl, 50 mM Tris-HCl pH 8.0, 5 mM EDTA, 1 mM DTT), 4 °C; cells untreated or treated with MLN4924 (1 μM, 6 h); Western blot

binding: binds
Substance: non-NEDDylated (inactive) Cullin4A (from UniProt Q13619 1-759)
